Data from PubChem BioAssay AID588855 (National Center for Advancing Translational Sciences (NCATS), 2011).
Out of some 410,000 compounds screened, about 5,000 (1.2%) were called active. The inconclusive results got no clear call from the source; some entries with a clear call stand among them for comparison. Calls follow the shape of the dose curve; as a rule, active = well fitted inhibition curve with a large enough effect; inconclusive = small, poorly fitted or top-dose-only effect; inactive = no such curve, though single readings can be large or run the other way. Where the call is inconclusive, the potency comes from a doubtful curve fit.
% is scaled to controls: 0 for no effect and ±100 for the full control effect; potency is read from the fitted curve at half-maximal effect; tags tell the direction and shape of the fitted curve.

Experiment: qHTS for Inhibitors of TGF-b; also: nearly all actives have a fitted effect of over 65% in size
Details: HepG2 CAGA-GFP TGF-b/SMAD3 reporter, GFP fluorescence, 18 h, TGF-beta stimulated, 500 pg/mL final; series mostly up to 46.1 µM; activity, negative = inhibition: at the top concentration
In short: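 Inhibition of TGF-beta-driven CAGA-GFP reporter expression in HEPG2 cells is measured by cellular GFP fluorescence after 18 h stimulation with 500 pg/mL recombinant TGF-beta in 1% FBS medium at 37 degrees C.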
In the case of `Cc1ccc(S(=O)(=O)CCC(=O)Nc2ccc(OC(F)(F)F)cc2)cc1`, the Potency is reported as inconclusive: 35.5 µM [inhibitor, single point].
For `CCOc1cccc(C2C=C(c3ccc4c(c3)OCO4)NC(c3cccc(Br)c3)N2)c1O` (configuration not stated), the Potency was inconclusive: 35.5 µM [inhibitor, single point].
In the case of `COc1cc(OC)c2c(-c3cccc(-c4ccc(N(C)C)cc4)c3)cc(=O)oc2c1`, the Potency is reported as active: 1.12 µM.
For `COc1ccc(C(=O)N2CCC(c3nc4ccccc4s3)CC2)cc1Cl`, the Potency was active: 8.91 µM.
With `CCN(CC)S(=O)(=O)c1ccc(NC(=O)CSc2nc3nc(C)cc(C)c3c(=O)[nH]2)cc1` the Potency was inconclusive: 35.5 µM [inhibitor, single point].
In the case of `O=C(CSc1n[nH]c(-c2ccccc2)n1)c1ccccc1`, the “activity, negative = inhibition” value is reported as inactive: 1.68%.
For `Cn1cccc1-c1cc(C(=O)N2CCc3c([nH]c4ccccc34)C2c2ccccn2)[nH]n1` (configuration not stated), the Potency was inconclusive: 17.8 µM [inhibitor, single point].
In the case of `C=C(C)c1cccc(C(C)(C)NC(=O)NC2CCN(Cc3ccccc3)CC2)c1`, the Potency is reported as inconclusive: 35.5 µM [inhibitor, single point].
For `Cc1ccc(S(=O)(=O)N/N=C/c2ccc(OCC(=O)Nc3ccccc3Cl)cc2)cc1`, the Potency was inconclusive: 35.5 µM [inhibitor, single point].
In the case of `CC(CNC(=O)CN1C(=O)NC2(CCOc3ccccc32)C1=O)c1ccccc1` (configuration not stated), the “activity, negative = inhibition” value is reported as inactive: -0.197%.
With `COc1ccccc1/C=C/c1nc(C#N)c(N2CCN(C)CC2)o1` the “activity, negative = inhibition” value was inactive: -13%.
In the case of `COc1ccc(-c2cc(CCCC(=O)N3CCN(c4ccc(OC)cc4)CC3)no2)cc1`, the Potency is reported as inconclusive: 35.5 µM [inhibitor, single point].
With `Cc1ccc(-c2csc(NC(=O)C3CSC4(C)CCC(=O)N34)n2)cc1` (configuration not stated) the Potency was inconclusive: 3.98 µM [inhibitor, single point].
For `CN1C(CC(=O)Nc2ccc(Br)cc2)c2ccccc2CC1(C)C` (configuration not stated), the Potency was inconclusive: 17.8 µM [inhibitor, single point].
For `COCCNC(=O)c1sc(=O)n(Cc2ccc(SC)cc2)c1C`, the “activity, negative = inhibition” value was inactive: -4.81%.
In the case of `Cc1cnc(C)c(Nc2nc(C(N)Cc3ccc(F)cc3)cs2)n1` (configuration not stated), the Potency is reported as inconclusive: 28.2 µM [inhibitor, single point].
With `Cc1ccc(S(=O)(=O)NCCC(c2ccccc2)c2ccco2)cc1` (configuration not stated) the Potency was inconclusive: 35.5 µM [inhibitor, single point].
For `O=C(OCC#CCSc1nc2ccccc2o1)c1cc2ccccc2o1`, the Potency was inconclusive: 3.16 µM [inhibitor, single point].
In the case of `Cc1ccc(S(=O)(=O)N2CCC(=O)N(CCOCc3ccc(Cl)cc3)CC2)cc1`, the Potency is reported as inconclusive: 8.91 µM [inhibitor, partial curve, poor fit].
In the case of `CCCN(CC(=O)Nc1ccccc1OC)Cc1c(O)ccc2ccccc12`, the Potency is reported as inconclusive: 14.1 µM [inhibitor, partial curve, poor fit].
For `COc1cccc2cc(/C(=N/O)c3ccc(Br)cc3)oc12`, the Potency was inconclusive: 35.5 µM [inhibitor, single point].
For `COc1ccc(CNC(=O)CN(C(=O)CCC(=O)Nc2ccccn2)c2ccc3c(c2)OCO3)cc1`, the Potency was inconclusive: 7.08 µM [inhibitor, partial curve, poor fit].
In the case of `N#Cc1ccccc1CN1C(=O)S/C(=C/c2cccn2-c2ccc(C(=O)O)cc2)C1=O`, the “activity, negative = inhibition” value is reported as inactive: 7.56%.
In the case of `CC(=O)Nc1ccc(/C=C/c2nc3ccccc3[nH]c2=O)cc1`, the “activity, negative = inhibition” value is reported as inactive: 1.38%.
For `O=c1onc(-c2cccnc2)n1-c1ccccc1F`, the “activity, negative = inhibition” value was inactive: -9.38%.
In the case of `O=C(Nc1ccccc1)N(Cc1c[nH]c2ccccc12)C1CCCCCC1`, the Potency is reported as inconclusive: 5.62 µM [inhibitor, partial curve, poor fit].
In the case of `Cc1cccc(C)c1OCc1cc(C(=O)N(C)Cc2nc3ccccc3[nH]2)no1`, the “activity, negative = inhibition” value is reported as inactive: -16.9%.
For `CCOC(=O)Nc1ccc2c(c1)N(C(=O)CCN(CC)CC)c1ccccc1CC2`, the Potency was inconclusive: 22.4 µM [inhibitor, single point].
In the case of `CCO[C@@H]1OC(C(N)=O)=C[C@H](c2cn(C(C)=O)c3ccccc23)[C@H]1CCCO`, the Potency is reported as inconclusive: 1.26 µM [inhibitor, partial curve, poor fit].
For `CC(C)(C)c1nnc(NC(=O)C2c3ccccc3Oc3ccccc32)s1`, the Potency was inconclusive: 35.5 µM [inhibitor, single point].
For `CCOC(=O)C1=C(c2ccccc2)N=c2s/c(=C\c3ccc(O)cc3)c(=O)n2C1c1cccs1` (configuration not stated), the Potency was inconclusive: 22.4 µM [inhibitor, single point].
For `O=C(CSc1nnc2c(n1)[nH]c1ccc(S(=O)(=O)N3CCOCC3)cc12)Nc1ccccc1Cl`, the “activity, negative = inhibition” value was inactive: -12.2%.
In the case of `CC1(Cc2ccc(Cl)cc2)C(=O)Nc2ccc(S(=O)(=O)NC3CCCCC3)cc21` (configuration not stated), the Potency is reported as inconclusive: 25.1 µM [inhibitor, single point].
With `O=C(O)CSc1nc(C(F)(F)F)cc(=O)n1-c1ccccc1` the Potency was inconclusive: 2 µM [inhibitor, partial curve, poor fit].
For `O=C(NCC(c1cccnc1)N1CCOCC1)c1cccs1` (configuration not stated), the Potency was inconclusive: 0.112 µM [inhibitor, full curve, poor fit].
For `Cc1ccc(NC(=O)C(C)OC(=O)c2ccc(NS(=O)(=O)c3ccc(F)c(F)c3)cc2)cc1` (configuration not stated), the Potency was inconclusive: 11.2 µM [inhibitor, partial curve, poor fit].
For `O=C(CSCc1ccc(Br)cc1)Nc1ccc(S(=O)(=O)N2CCCCCC2)cc1`, the Potency was inconclusive: 35.5 µM [inhibitor, single point].
With `C[C@]12c3[nH]c4ccc(Cl)cc4c3CCN1C(=O)[C@@H](CC(=O)NCc1cccc(C(F)(F)F)c1)C[C@@H]2C(=O)N1CCOCC1` the Potency was active: 10 µM.
In the case of `NC(Cc1ccc(F)cc1)c1csc(NC(=O)NC(c2ccccc2)c2ccccc2)n1` (configuration not stated), the Potency is reported as inconclusive: 20 µM [inhibitor, single point].
In the case of `Cc1sc2c(c1C)c(=O)n(-c1ccc(Cl)cc1)c(=O)n2Cc1cc(=O)n2cc(Br)ccc2n1`, the “activity, negative = inhibition” value is reported as inactive: 0.0222%.
For `Cc1ccnc(NC(=O)c2ccc([N+](=O)[O-])o2)c1`, the Potency was inconclusive: 20 µM [inhibitor, single point].
With `CN(c1ccccc1)S(=O)(=O)c1cccc(NC(=O)CCNC(=O)c2ccc(Cl)cc2)c1` the Potency was inconclusive: 35.5 µM [inhibitor, partial curve, poor fit].
With `CC1=C(C(=O)Nc2ccccc2)C(c2ccc(C)cc2)N=C(Nc2nc3ccccc3o2)N1` (configuration not stated) the Potency was inconclusive: 15.8 µM [inhibitor, single point].
For `CCc1cccc(CC)c1NC(=O)C1CCC(CNS(=O)(=O)c2cccc3nsnc23)CC1` (configuration not stated), the “activity, negative = inhibition” value was inactive: -14.2%.
For `COC(=O)c1c(NC(=O)CC2SC(N)=NC2=O)sc2c1CCC(C(C)(C)C)C2` (configuration not stated), the Potency was inconclusive: 35.5 µM [inhibitor, single point].
For `CC1(C)CC(=O)C2=C(C1)N(c1ccc(Cl)cc1)C(=O)C2(O)C(F)(F)F` (configuration not stated), the Potency was inconclusive: 3.55 µM [inhibitor, single point].
For `CC1(C(=O)NS(=O)(=O)c2cccc(F)c2)CCN1C(=O)Cc1cc(F)ccc1F` (configuration not stated), the Potency was inconclusive: 0.447 µM [inhibitor, full curve, poor fit].
With `CCC1=C(c2ccc(C)cc2)S(=O)(=O)N=C1N1CCC(C(=O)NCc2ccc(C)cc2)CC1` the Potency was inconclusive: 35.5 µM [inhibitor, single point].
With `Cc1ccc(C(=O)/C=C/c2cn(CC(O)CN3CCCCCC3)c3ccccc23)cc1` (configuration not stated) the Potency was inconclusive: 35.5 µM [inhibitor, single point].
With `Cc1cc(C)c(NC(=O)CN(C)S(=O)(=O)c2ccc3c(c2)c(=O)n(C)c(=O)n3C)c(C)c1` the Potency was inconclusive: 5.62 µM [inhibitor, single point].
In the case of `O=C1Nc2ccccc2N=C(c2ccc3c(c2)OCO3)C1N(CCc1ccccc1)C(=O)CSc1ncccn1` (configuration not stated), the Potency is reported as inconclusive: 25.1 µM [inhibitor, single point].
With `Cc1[nH]nc2c1/C(=N/O)CC(c1ccccc1)C2` (configuration not stated) the “activity, negative = inhibition” value was inactive: -0.505%.
In the case of `CCCOc1ccc(-c2cccc(NS(=O)(=O)c3ccc(CC)cc3)c2)nn1`, the Potency is reported as inconclusive: 11.2 µM [inhibitor, partial curve, poor fit].
In the case of `COc1ccccc1N1CCN(C(=O)CSc2nnc3n2C(C)(C)Cc2ccccc2-3)CC1`, the Potency is reported as inconclusive: 12.6 µM [inhibitor, partial curve].
With `CCCC(=O)NC(=S)Nc1ccc(S(=O)(=O)N2CCc3ccccc32)cc1` the Potency was inconclusive: 22.4 µM [inhibitor, single point].
With `COc1ccc(NC(=O)CN2CCN(c3ccccc3F)CC2)c(OC)c1` the Potency was inconclusive: 0.891 µM [inhibitor, full curve, poor fit].
In the case of `COC(=O)c1c(-c2ccsc2)sc2ccc(-c3cc(OC)c(OC)c(OC)c3)cc12`, the “activity, negative = inhibition” value is reported as inactive: -32.1%.
With `CC(C)c1ccc(NC(=O)CN2C(=O)CCc3cc(S(=O)(=O)N4CCOCC4)ccc32)cc1` the Potency was inconclusive: 5.62 µM [inhibitor, partial curve, poor fit].
With `CCOC(=O)[C@H]1[C@H]2COc3ccc(Br)cc3[C@@H]2N2C(=O)CN(Cc3ccccc3)C(=O)[C@@]12C` the Potency was inconclusive: 28.2 µM [inhibitor, single point].
With `OCCN(CCO)CC(O)COc1ccc(C23CC4CC(CC(C4)C2)C3)cc1` (configuration not stated) the Potency was active: 17.8 µM.
In the case of `COc1ccc(S(=O)(=O)NCCc2sc(-c3cccc(F)c3)nc2C)cc1`, the Potency is reported as inconclusive: 35.5 µM [inhibitor, partial curve, poor fit].
With `Cc1cc(Br)ccc1SCC(=O)OCC(=O)Nc1ncc(C(F)(F)F)cc1Cl` the Potency was inconclusive: 35.5 µM [inhibitor, partial curve, poor fit].
